Experimental data from PubChem BioAssay AID1508621 (National Center for Advancing Translational Sciences (NCATS), 2021).
Inconclusive means that the source gave no clear call. Such entries were picked first, then a sample of the others. Potencies of inconclusive entries are doubtful fits and often do not repeat. Active and inactive are the calls of the source. Calls come from the whole dose curve; as a rule, active = well fitted inhibition curve with a large enough effect; inconclusive = small, poorly fitted or top-dose-only effect; inactive = no such curve, though single readings can be large or run the other way.

Experiment: Confirmatory qHTS for Identification of Small Molecule Inhibitors of Huntingtin Promoter Activity; note: nearly all actives have a fitted effect of over 65% in size
Details: HEK293 HTT promoter firefly luciferase reporter, 24 h; series mostly up to 57.5 µM; activity change, negative = inhibition: at the top concentration
Summary of the method: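 Activity normalized between vehicle control (0%) and zero RLU (-100%) from firefly luminescence (Dual-Glo). Compounds, up to 57.5 uM final, incubated 24 h at 37C on HEK293 reporter cells plated 24 h earlier.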
Potency is the fitted concentration of half-maximal effect; tags give direction and shape of the fitted curve.

Structure (SMILES)	Potency	activity change, negative = inhibition
O=C(NCC1CCN(Cc2ccccc2F)CC1)Nc1ccc(F)c(Cl)c1	inconclusive: 9.53 µM [inhibitor, partial curve]	
Cc1ccccc1NC(=O)c1sc2nc3c(cc2c1N)CN(Cc1ccccc1)CC3	inconclusive: 23.9 µM [inhibitor, partial curve]	
CCOC(=O)c1cc(-c2ccccc2)n(CCC(=O)Nc2ccc(OC)c(Cl)c2)c1C	inconclusive: 16.9 µM [inhibitor, partial curve]	
CCc1ccc(OCC(=O)NCC(c2ccc(Cl)cc2)N2CCOCC2)cc1 (stereo unspecified)	inconclusive: 19 µM [inhibitor, single point]	
COc1ccc(CCNC(=O)c2ccc3c(c2)CCN3S(=O)(=O)c2ccc(Cl)cc2)cc1	inconclusive: 16.9 µM [inhibitor, partial curve]	
CCCc1ccc(C2Sc3ccccc3NC3=C2C(=O)c2ccccc23)cc1 (stereo unspecified)	inconclusive: 33.8 µM [inhibitor, single point]	
Cc1ccccc1CNC(=O)c1ccc(-c2nc(CS(=O)(=O)c3ccccc3)c(C)o2)cc1	inconclusive: 30.1 µM [inhibitor, partial curve]	
Cc1ccc(NC(=O)C2CCCN2S(=O)(=O)c2cccc3nsnc23)cc1Cl (stereo unspecified)	inconclusive: 33.8 µM [inhibitor, partial curve]	
N#Cc1ccccc1S(=O)(=O)N1CCC(Oc2ccc(-n3cnnn3)cc2)CC1	inconclusive: 21.3 µM [inhibitor, partial curve]	
CCOC(=O)c1ccc(N2C(=O)c3[nH]nc(-c4ccc(OCC)cc4)c3C2c2cccs2)cc1 (stereo unspecified)	inconclusive: 12 µM [inhibitor, partial curve]	
Cc1ccc(Nc2cc(C)nc(-n3nc(C)cc3C)n2)cc1	inconclusive: 23.9 µM [inhibitor, single point]	
CCc1ccc(-n2c(SCC(=O)NC(C)CC)nc3n[nH]c(C)c3c2=N)cc1 (stereo unspecified)		inactive: -17.2%
Cc1ccc(-c2cn3nc(N4CCCC(C(=O)Nc5ccc(F)cc5)C4)sc3n2)cc1 (stereo unspecified)	inconclusive: 19 µM [inhibitor, single point]	
COc1ccc(S(=O)(=O)NCCc2sc3nc(-c4ccc(C)cc4)nn3c2C)cc1F	inconclusive: 6.75 µM [inhibitor, partial curve]	
CCc1ccc(NC(=O)c2ccc(F)c(S(=O)(=O)NCc3ccc(Cl)c(Cl)c3)c2)cc1	inconclusive: 19 µM [inhibitor, single point]	
O=C(Nc1cccc(Cl)c1)c1c(NC(=O)C(F)(F)F)sc2c1CCCC2	active: 4.26 µM	
COc1cc(CN(C(=O)COc2ccc(Br)cc2)c2ccccn2)cc(OC)c1OC	inconclusive: 13.5 µM [inhibitor, partial curve]	
Cc1cccc(-c2nc(SCC(=O)Nc3ccc4c(c3)OCO4)c(-c3ccccc3)[nH]2)c1	inconclusive: 30.1 µM [inhibitor, single point]	
CCOc1ccccc1NC(=O)c1ccc(F)c(S(=O)(=O)N2CCN(c3ccc(F)cc3)CC2)c1	inconclusive: 3.38 µM [inhibitor, full curve, poor fit]	
Cc1cccc(N2CCN(S(=O)(=O)c3cc(C(=O)Nc4ccc(Oc5ccccc5)cc4)ccc3F)CC2C)c1 (stereo unspecified)	inconclusive: 0.151 µM [inhibitor, full curve]	
O=C(NCc1ccc(F)cc1)c1ccc(CS(=O)(=O)c2ccc(Cl)cc2)o1	inconclusive: 12 µM [inhibitor, partial curve]	
COc1ccccc1C(=O)Nc1nnc(SCc2cc(=O)c3ccccc3[nH]2)s1	inconclusive: 26.9 µM [inhibitor, partial curve]	
CCCCN(C)CCCNC(=O)Cn1ncc2c3ccccc3n(Cc3ccccc3F)c2c1=O	inconclusive: 26.9 µM [inhibitor, single point]	
COc1ccc(OC(C)C(=O)NCc2nc(-c3ccc(Cl)cc3)no2)cc1 (stereo unspecified)	inconclusive: 19 µM [inhibitor, single point]	
COc1ccc(-c2nc3sc(CCNS(=O)(=O)c4ccc(F)c(C)c4)c(C)n3n2)cc1	inconclusive: 19 µM [inhibitor, partial curve]	
O=C(NCCCN1CCN(c2ccccc2)CC1)c1ccc2nc(CCc3ccccc3)oc2c1	inconclusive: 30.1 µM [inhibitor, single point]	
